Reference: the antibiotic and cytotoxicity screens of Wong et al. (2023)
The other results are listed elsewhere or left out.

Key:
HSkMC = human skeletal muscle cells; test: cytotoxicity call (relative viability < 0.9); settings: 10 µM
HepG2 = test: cytotoxicity call (relative viability < 0.9); settings: 10 µM
S. aureus RN4220 = test: growth inhibition call (relative growth <= 0.2); settings: 50 µM

C[C@H](CO)N1C[C@H](C)[C@@H](CN(C)S(=O)(=O)c2ccc(Cl)cc2)Oc2c(NS(=O)(=O)c3cn(C)cn3)cccc2C1=O
inactive: cytotoxicity call (HSkMC) | cytotoxicity call (HepG2) | growth inhibition call (S. aureus RN4220)

Cc1ccc(S(=O)(=O)Nc2ccc3c(c2)C(=O)N([C@H](C)CO)C[C@@H](C)[C@@H](CN(C)S(=O)(=O)c2ccc(C)cc2)OCCCC[C@@H](C)O3)cc1
inactive: cytotoxicity call (HSkMC) | cytotoxicity call (HepG2) | growth inhibition call (S. aureus RN4220)

C[C@H]1CCCCO[C@@H](CN(C)C(=O)Nc2cccc3ccccc23)[C@@H](C)CN([C@@H](C)CO)C(=O)c2cc(NC(=O)C3CCCCC3)ccc2O1
inactive: cytotoxicity call (HSkMC) | cytotoxicity call (HepG2) | growth inhibition call (S. aureus RN4220)

C[C@@H]1CN([C@H](C)CO)C(=O)c2cc(NC(=O)NC3CCCCC3)ccc2O[C@H]1CN(C)Cc1ccc(-c2ccccc2)cc1
inactive: cytotoxicity call (HSkMC) | cytotoxicity call (HepG2) | growth inhibition call (S. aureus RN4220)

CC(C)CC#Cc1ccc2c(c1)O[C@@H](CN(C)S(=O)(=O)c1cccc(F)c1)[C@@H](C)CN([C@H](C)CO)S2(=O)=O
inactive: cytotoxicity call (HSkMC) | cytotoxicity call (HepG2) | growth inhibition call (S. aureus RN4220)

C[C@H](CO)N1C[C@H](C)[C@@H](CN(C)C(=O)c2cccc(F)c2)Oc2cc(-c3ccncc3)ccc2S1(=O)=O
inactive: cytotoxicity call (HSkMC) | cytotoxicity call (HepG2) | growth inhibition call (S. aureus RN4220)

O=C(C[C@@H]1CC[C@@H]2[C@H](COC[C@@H](O)CN2S(=O)(=O)c2ccccc2)O1)NCc1ccncn1
inactive: cytotoxicity call (HSkMC) | cytotoxicity call (HepG2) | growth inhibition call (S. aureus RN4220)

CC(=C\c1ccccc1)/C(C)=N/O
inactive: cytotoxicity call (HSkMC) | cytotoxicity call (HepG2) | growth inhibition call (S. aureus RN4220)

CO[C@H]1CN(C)C(=O)c2cc(NS(C)(=O)=O)ccc2OC[C@H](C)N(C(=O)C2CCCCC2)C[C@H]1C
inactive: cytotoxicity call (HSkMC) | cytotoxicity call (HepG2) | growth inhibition call (S. aureus RN4220)

C[C@@H]1CN([C@H](C)CO)C(=O)c2cccc(NC(=O)c3ccc(-c4nccs4)cc3)c2O[C@@H]1CN(C)C(=O)Nc1ccc2c(c1)OCO2
inactive: cytotoxicity call (HSkMC) | cytotoxicity call (HepG2) | growth inhibition call (S. aureus RN4220)

C[C@@H]1CCCCO[C@H](CN(C)C(=O)NC2CCCCC2)[C@H](C)CN([C@H](C)CO)C(=O)c2cc(NS(=O)(=O)c3cccs3)ccc2O1
inactive: cytotoxicity call (HSkMC) | cytotoxicity call (HepG2) | growth inhibition call (S. aureus RN4220)

C[C@H]1CCCCO[C@H](CN(C)C(=O)C2CCCCC2)[C@@H](C)CN([C@@H](C)CO)C(=O)c2cc(NS(=O)(=O)c3ccc(F)cc3)ccc2O1
inactive: cytotoxicity call (HSkMC) | cytotoxicity call (HepG2) | growth inhibition call (S. aureus RN4220)

COc1ccc(C#Cc2cnc3c(c2)C(=O)N([C@H](C)CO)C[C@H](C)[C@H](CN(C)S(=O)(=O)c2cn(C)cn2)O3)cc1OC
inactive: cytotoxicity call (HSkMC) | cytotoxicity call (HepG2) | growth inhibition call (S. aureus RN4220)

C[C@@H]1CN([C@H](C)CO)C(=O)c2cc(NC(=O)CCN3CCOCC3)ccc2O[C@@H]1CN(C)S(=O)(=O)c1ccccc1
inactive: cytotoxicity call (HSkMC) | cytotoxicity call (HepG2) | growth inhibition call (S. aureus RN4220)

C[C@@H]1CN([C@@H](C)CO)C(=O)c2cccc(NS(=O)(=O)c3cccs3)c2O[C@@H]1CN(C)S(=O)(=O)c1cn(C)cn1
inactive: cytotoxicity call (HSkMC) | cytotoxicity call (HepG2) | growth inhibition call (S. aureus RN4220)

O=C(O)C1=CCNCC1
inactive: cytotoxicity call (HSkMC) | cytotoxicity call (HepG2) | growth inhibition call (S. aureus RN4220)

CC(C)c1ccccc1OC[C@@H](O)CN
inactive: cytotoxicity call (HSkMC) | cytotoxicity call (HepG2) | growth inhibition call (S. aureus RN4220)

C[C@@H]1CN([C@H](C)CO)C(=O)CCCn2nncc2CO[C@H]1CN(C)C(=O)c1cc(-c2ccccc2)on1
inactive: cytotoxicity call (HSkMC) | cytotoxicity call (HepG2) | growth inhibition call (S. aureus RN4220)

CO[C@H]1CN(C)C(=O)c2ccc(NS(=O)(=O)CC(F)(F)F)cc2OC[C@H](C)N(Cc2cccnc2)C[C@@H]1C
inactive: cytotoxicity call (HSkMC) | cytotoxicity call (HepG2) | growth inhibition call (S. aureus RN4220)

C[C@H](CO)N1C[C@H](C)[C@@H](CN(C)C(=O)c2ccccc2)OCCCC[C@H](C)Oc2ccc(NC(=O)C3CCCCC3)cc2C1=O
inactive: cytotoxicity call (HSkMC) | cytotoxicity call (HepG2) | growth inhibition call (S. aureus RN4220)

C[C@@H]1CN([C@@H](C)CO)C(=O)c2cc(Br)cnc2O[C@H]1CN(C)C(=O)CN1CCOCC1
inactive: cytotoxicity call (HSkMC) | cytotoxicity call (HepG2) | growth inhibition call (S. aureus RN4220)

C[C@@H]1CN([C@@H](C)CO)C(=O)CCCn2cc(nn2)CO[C@H]1CN(C)S(=O)(=O)c1ccc(Oc2ccccc2)nc1
inactive: cytotoxicity call (HSkMC) | cytotoxicity call (HepG2) | growth inhibition call (S. aureus RN4220)

Nc1ccc(F)cn1
inactive: cytotoxicity call (HSkMC) | cytotoxicity call (HepG2) | growth inhibition call (S. aureus RN4220)

C[C@@H]1CCCCO[C@H](CN(C)S(=O)(=O)c2ccccc2)[C@H](C)CN([C@H](C)CO)C(=O)c2cc(NS(=O)(=O)c3ccc(Cl)cc3)ccc2O1
inactive: cytotoxicity call (HSkMC) | cytotoxicity call (HepG2) | growth inhibition call (S. aureus RN4220)

C[C@@H]1CN([C@H](C)CO)C(=O)c2cc(NC(=O)Nc3ccc(C(F)(F)F)cc3)ccc2O[C@@H](C)CCCCO[C@@H]1CN(C)Cc1ccc(Cl)c(Cl)c1
inactive: cytotoxicity call (HSkMC) | cytotoxicity call (HepG2) | growth inhibition call (S. aureus RN4220)

C[C@@H]1CCCCO[C@H](CN(C)Cc2ccc(C(=O)O)cc2)[C@H](C)CN([C@@H](C)CO)C(=O)c2cc(NC(=O)c3ccccc3)ccc2O1
inactive: cytotoxicity call (HSkMC) | cytotoxicity call (HepG2) | growth inhibition call (S. aureus RN4220)

C[C@H]1CN([C@@H](C)CO)C(=O)c2cc(NC(=O)Nc3ccc(F)cc3)ccc2O[C@@H]1CN(C)S(C)(=O)=O
inactive: cytotoxicity call (HSkMC) | cytotoxicity call (HepG2) | growth inhibition call (S. aureus RN4220)

CCC1(c2ccccc2)C(=O)NCNC1=O
inactive: cytotoxicity call (HSkMC) | cytotoxicity call (HepG2) | growth inhibition call (S. aureus RN4220)

Cc1ccc(S(=O)(=O)N(C)C[C@H]2OCCCC[C@H](C)Oc3ccc(NS(=O)(=O)c4ccc(Cl)cc4)cc3C(=O)N([C@H](C)CO)C[C@H]2C)cc1
inactive: cytotoxicity call (HSkMC) | cytotoxicity call (HepG2) | growth inhibition call (S. aureus RN4220)

O=C(N/N=C/c1ccc(B(O)O)cc1)c1ccccc1O
inactive: cytotoxicity call (HSkMC) | cytotoxicity call (HepG2) | growth inhibition call (S. aureus RN4220)

COc1cccc(S(=O)(=O)Nc2ccc3c(c2)[C@H]2C[C@H](CC(=O)N4CCCCC4)O[C@@H](CO)[C@H]2O3)c1
inactive: cytotoxicity call (HSkMC) | cytotoxicity call (HepG2) | growth inhibition call (S. aureus RN4220)

Cc1noc(C)c1S(=O)(=O)Nc1ccc2c(c1)CC(=O)N([C@@H](C)CO)C[C@@H](C)[C@H](CN(C)Cc1ccncc1)O2
inactive: cytotoxicity call (HSkMC) | cytotoxicity call (HepG2) | growth inhibition call (S. aureus RN4220)

C[C@@H]1CN([C@H](C)CO)C(=O)c2cc(NC(=O)C3CC3)ccc2O[C@H]1CN(C)C(=O)Nc1ccc2c(c1)OCO2
inactive: cytotoxicity call (HSkMC) | cytotoxicity call (HepG2) | growth inhibition call (S. aureus RN4220)

C[C@H](CO)N1C[C@H](C)[C@H](CN(C)S(=O)(=O)c2ccc(F)cc2)Oc2ccc(NS(=O)(=O)c3cccs3)cc2CC1=O
inactive: cytotoxicity call (HSkMC) | cytotoxicity call (HepG2) | growth inhibition call (S. aureus RN4220)

COCCOC(=O)N1C(=O)[C@@]2(c3cc(C#CCCO)ccc31)[C@H](C(=O)NC[C@H](O)c1ccccc1)[C@H]1C(=O)O[C@H](c3ccccc3)[C@H](c3ccccc3)N1[C@@H]2c1ccccc1OCCO
inactive: cytotoxicity call (HSkMC) | cytotoxicity call (HepG2) | growth inhibition call (S. aureus RN4220)

C[C@H](CO)N1C[C@H](C)[C@H](CN(C)S(=O)(=O)c2cn(C)cn2)Oc2ccc(NS(C)(=O)=O)cc2CC1=O
inactive: cytotoxicity call (HSkMC) | cytotoxicity call (HepG2) | growth inhibition call (S. aureus RN4220)

COc1ccc(NC(=O)N(C)C[C@@H]2Oc3ccc(NC(=O)Nc4ccc(C(F)(F)F)cc4)cc3C(=O)N([C@H](C)CO)C[C@@H]2C)cc1
inactive: cytotoxicity call (HSkMC) | cytotoxicity call (HepG2) | growth inhibition call (S. aureus RN4220)
